These results are taken from ChEMBL document CHEMBL1201862, “PubChem BioAssay data set” (2004).

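The compound was tested at five concentrations on cells cultured in 96-well plates, with a 48-hour exposure period. GI50 = concentration required for 50% inhibition of growth.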 Activity calls are given as the source filed them. No stated cut-off is given here; in the data, active = GI50 up to about 1.1 µM and inactive = higher.

In the test the test system is NCI-H322M. The experiment in a line: NCI tumour cell line growth inhibition, 48 h.
On to `c1cnc(N2CCN(Cc3c[nH]c4ccccc34)CC2)nc1`, for which the GI50 is inactive: 79.3 µM.

`COC1=C(C)C(=O)C2=C(C1=O)C1C3CC4=C(C(=O)C(OC)=C(C)C4=O)C(CNC(=O)C(C)=O)N3C(C#N)C(C2)N1C` (stereo not drawn): the GI50 was active: 0.0347 µM.

As for `NC(=O)c1ccccc1[N+](=O)[O-]`, the GI50 was inactive: > 100 µM.

As for `COc1ccc2c(c1)-c1nn(CCN(C)C)c3ccc(C(=O)NCCCN(C)CCCNC(=O)c4ccc5c6c(c7cc(OC)ccc7nc46)NN5CCN(C)C)c(c13)N2`, the GI50 is active: < 0.01 µM.

Take `COC(=O)C(=O)OC1(C(C)=O)CC2(c3ccccc3)OC1(c1ccccc1)c1ccccc12` (stereo not drawn): the GI50 was inactive: 17.3 µM.

For the molecule `Brc1ccc(/C(N=N/C(=N\Sc2ccccc2)c2ccc(Br)cc2)=N/Sc2ccccc2)cc1`, the GI50 is inactive: > 100 µM.

`Sc1nnc(COc2ccc(Cl)cc2Cl)[nH]1`: the GI50 was inactive: > 100 µM.

`CCOP(=O)(OCC)C1C(CO)OC(n2ccc(=O)[nH]c2=O)C1O` (stereo not drawn): the GI50 was inactive: > 100 µM.

Consider `CC(C)(C)NC(NC(C)(C)C)=C(/C=C(/Cl)[N+](=O)[O-])[N+](=O)[O-]`, for which the GI50 was inactive: > 100 µM.

In the case of `CNc1cc([N+](=O)[O-])ccc1C(=O)N1CCC[C@H]1CO`, the GI50 was inactive: > 100 µM.

Consider `N#CC(C(=O)CCC(=O)Nc1cccc(Cl)c1)c1ccccc1` (stereo not drawn), for which the GI50 is inactive: > 100 µM.

Regarding `[N-]=[N+]=CC(=O)OC(CCl)CCl`, the GI50 was inactive: > 100 µM.

Turning to `CCC1C(=O)OCc2c1cc1n(c2=O)Cc2cc3ccccc3nc2-1` (stereo not drawn), the GI50 was inactive: 33.8 µM.

On to `CCCCC(=O)Nc1ccc2cc(C(=O)OC)c(=O)[nH]c2n1`, for which the GI50 was inactive: > 100 µM.

As for `CC(NC(=O)C(Cc1ccc(OC(=O)c2ccccc2)cc1)NC(=O)OC(C)(C)C)C(=O)NCC(=O)NC(Cc1ccccc1)NC(=O)OCc1ccccc1` (stereo not drawn), the GI50 was inactive: > 100 µM.

With `O=C(O)Cn1c(=O)[nH]c(=O)c2[nH]cnc21`, the GI50 is inactive: > 100 µM.

Take `c1ccc(N/N=N/c2ccc(-c3nc4ccccc4[nH]3)cc2)nc1`: the GI50 was inactive: 19.2 µM.

Take `CC(NC(=O)c1ccc(OP(=O)(OCC2=CC(=O)c3ccccc3C2=O)N(C)CCCCCl)cc1)c1ccc(OCC2CCCCC2)c(C(N)=O)c1` (stereo not drawn): the GI50 was inactive: 15.5 µM.

Take `O=c1sc(Nc2ccc3ccccc3c2Cl)nc2ccccc12`: the GI50 is inactive: > 100 µM.

As to `C/C(=N\NC(N)=O)C(CN(C)C)C(c1ccccc1)c1c(O)c2ccccc2oc1=O` (stereo not drawn), the GI50 was inactive: > 100 µM.

For `OCC(O)C1OC2CC1Nc1ccccc1N2` (stereo not drawn), the GI50 was inactive: > 100 µM.

Regarding `O=c1c(S(=O)(=O)Oc2ccccc2)coc2cc(F)ccc12`, the GI50 is inactive: 20 µM.

Turning to `CCOC(=O)NC(NNc1ccc([N+](=O)[O-])cc1[N+](=O)[O-])(C(F)(F)F)C(F)(F)F`, the GI50 is inactive: 35.2 µM.

For `CC1=CC2C(O1)C1C(=O)C=CC(=O)C1=CC2[N+](=O)[O-]` (stereo not drawn), the GI50 is inactive: > 47.6 µM.

On to `C=CCCCC1(C)CCNC1=S` (stereo not drawn), for which the GI50 is inactive: > 100 µM.

Take `Cc1nc2c(ccc3[nH]c4ccccc4c32)s1`: the GI50 is inactive: 31.2 µM.

As for `COc1ccc2[nH]c3c(C)c4cc[n+](COC(=O)c5ccccc5)cc4c(C)c3c2c1`, the GI50 was active: 0.274 µM.

As for `Cc1ccc(Nc2c(C#N)[n+]([O-])c3cc(Cl)ccc3[n+]2[O-])cc1`, the GI50 was inactive: > 24.4 µM.

Turning to `COC(=O)C1=C(C)N2[C@H](C(=O)O)CO[C@@]2(C)[C@H](C(=O)OC)[C@H]1c1cccc([N+](=O)[O-])c1`, the GI50 was inactive: > 100 µM.

As for `C=C1[C@@](C)([C@@H]2CCCS2)[C@H]2C(C)=C[C@]1(C)n1c(=O)n(-c3ccccc3)c(=O)n12`, the GI50 is inactive: > 100 µM.

As for `N#CC1=C(N)N2C(=O)/C(=C/c3ccccc3)SC2C(c2nc3ccccc3[nH]2)=C1c1ccccc1` (stereo not drawn), the GI50 was inactive: 2.47 µM.

For the molecule `NC(=O)C1CCN(Cc2c(Cl)c(Cl)c(CN3CCC(C(N)=O)CC3)c(Cl)c2Cl)CC1`, the GI50 was inactive: 50.5 µM.

On to `CCOC(=O)/C1=C(\C)N(c2ccc(C)cc2)C(=O)c2ccccc2C(=O)c2c(OC(C)=O)ccc(OC(C)=O)c21`, for which the GI50 was inactive: 14.1 µM.

Turning to `COC(=O)C1(C)CCc2c(ccc3ccccc23)C1=O` (stereo not drawn), the GI50 is inactive: 27.1 µM.

Take `CC(=O)Oc1ccn2nc(C)c(Br)c2c1`: the GI50 is inactive: > 100 µM.

For `Nc1nc(Cl)cc(NCC2(CO)CC=CC2)n1`, the GI50 was inactive: > 100 µM.

With `Cc1ccc(/C=C2/N/C(=N\N=C/c3ccccc3)NC2=O)cc1`, the GI50 is inactive: 68.2 µM.

Regarding `C#C[C@]1(O)CCC2C3CCc4cc(Oc5nc(F)nc(-c6c7cc8ccccc8cc7c7n6CCS7)n5)ccc4C3CCC21C` (stereo partly drawn), the GI50 is inactive: 92 µM.

Regarding `COC(=O)C(CCC1C=CCC1)/N=C\c1ccccc1` (stereo not drawn), the GI50 is inactive: 43.6 µM.

As to `CN(C)c1ccc(/C=C2\N=C(N/N=C/c3ccccc3O)NC2=O)cc1`, the GI50 was inactive: 34.9 µM.

Regarding `CC(=O)OCc1cccc(O)c1C(=O)CCC=C(C)C`, the GI50 is inactive: > 100 µM.

As to `CC(C)(Br)C1(O)CCCN1C(=O)c1ccccc1` (stereo not drawn), the GI50 was inactive: > 100 µM.

In the case of `C[C@]12CC/C(=N\O)C=C1CC[C@@H]1[C@@H]2CC[C@]2(C)C(=N/O)/C(=C/c3cccnc3)C[C@@H]12`, the GI50 was inactive: 18.6 µM.

Regarding `NC(=O)N1N=C2c3ccccc3SC[C@H]2[C@@H]1c1ccccc1`, the GI50 was inactive: 33.5 µM.

As to `Cc1cc(C#N)c[n+](C)c1`, the GI50 is inactive: > 100 µM.

In the case of `CON(C)C(=O)C1CCCO1` (stereo not drawn), the GI50 is inactive: > 100 µM.

For the molecule `O=C(O/N=C1/CCC/C1=C\c1ccccc1)c1ccc(Cl)c(Cl)c1`, the GI50 was inactive: > 100 µM.

Take `CCOC(=O)C1(C(=O)OCC)OC(=O)NC2=C1CCCC2`: the GI50 is inactive: > 100 µM.

`CSc1nc2ccccc2c(=O)n1/N=C1\C(=O)N(CN2CCOCC2)c2ccc(Cl)cc21`: the GI50 is inactive: 24.1 µM.

In the case of `COc1ccc(/C=[N+](\[O-])[C@H](COCc2ccccc2)c2ccccc2)cc1`, the GI50 was inactive: > 100 µM.

Take `O=[N+]([O-])c1cc(/C=N/C23CC4CC(CC(C4)C2)C3)ccc1Cl`: the GI50 was inactive: 69.3 µM.

`COc1cc(Br)c(CC2(C#N)c3ccccc3C3C(N2C(=O)c2ccccc2)C3(Cl)Cl)cc1OC` (stereo not drawn): the GI50 was inactive: > 65.5 µM.

Consider `Nc1ncnc2oc(-c3cccs3)nc12`, for which the GI50 is inactive: > 100 µM.

For the molecule `O=[N+]([O-])c1ccc2c(c1)c(S(=O)(=O)O)cc1nonc12`, the GI50 is inactive: > 100 µM.

As for `COCC1N=C(c2ccc(OC)c(OCc3ccccc3)c2OC)O[C@H]1c1ccccc1` (stereo partly drawn), the GI50 was inactive: 18.9 µM.

`COc1ccc(-c2nc(N)c3ncn(C4OC(CO)C(O)C4O)c3n2)cc1` (stereo not drawn): the GI50 was inactive: > 100 µM.

Consider `NP(=O)(Oc1c2occc2cc2ccc(=O)oc12)N(CCCl)CCCl` (stereo not drawn), for which the GI50 was inactive: > 100 µM.

On to `COc1cccc(-n2c3nc(=O)n(C)c(=O)c-3nc3ccccc32)c1`, for which the GI50 is inactive: 24 µM.
